Data taken from PubChem BioAssay AID624417 (National Center for Advancing Translational Sciences (NCATS), 2012).
Where “and” joins values, the source holds several entries; their conditions need not be identical. Equal entries are not always repeated. About 6,400 (1.6%) of roughly 410,000 compounds were called active. Inconclusive results, whose numbers are uncertain, are shown with a selection of clear calls. The call rests on the fitted dose curve; in most records, active means well fitted inhibition curve with a large enough effect; inconclusive means small, poorly fitted or top-dose-only effect; inactive means no such curve, though single readings can be large or run the other way. Potencies beside an inconclusive call are fits to weak or partial responses and may not hold up.

Each compound was assayed against Glucagon-like peptide 1 receptor (Homo sapiens) (UniProt P43220) (assay: qHTS of GLP-1 Receptor Inverse Agonists (Inhibition Mode)). Details: HEK293 GLP-1R CRE-luciferase, luminescence, 24 h, GLP-1R form is constitutively active; series mostly up to 38.3 µM.
Chain of UniProt P43220 (P43220 whole entry, looked up): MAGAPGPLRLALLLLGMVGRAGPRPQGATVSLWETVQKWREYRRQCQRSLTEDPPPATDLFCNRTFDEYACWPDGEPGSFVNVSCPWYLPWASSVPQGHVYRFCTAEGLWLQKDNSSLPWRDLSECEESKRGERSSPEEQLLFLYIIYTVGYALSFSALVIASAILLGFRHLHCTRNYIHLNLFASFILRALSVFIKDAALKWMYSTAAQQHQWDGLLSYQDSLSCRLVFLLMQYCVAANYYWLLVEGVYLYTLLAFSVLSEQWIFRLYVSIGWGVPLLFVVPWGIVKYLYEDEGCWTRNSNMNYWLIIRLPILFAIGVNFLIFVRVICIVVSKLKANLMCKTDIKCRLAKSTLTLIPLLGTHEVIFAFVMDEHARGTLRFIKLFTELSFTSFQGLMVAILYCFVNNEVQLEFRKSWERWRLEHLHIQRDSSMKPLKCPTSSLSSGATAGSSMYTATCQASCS
Outline: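 Cells are plated, allowed 12 hours at 37 deg C, then treated with compounds for 24 hr before luciferase detection reagent is added and luminescence is read after 12 min at room temperature. The HEK293 line carries constitutively active GLP-1R with a cAMP-responsive reporter.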
Further: nearly all actives have a fitted effect of over 55% in size.
Potency means the concentration at half of the fitted maximal effect; tags describe the fitted curve by direction and shape.

| Compound | Potency |
| --- | --- |
| Cc1ccc(Nc2nc(C)c3c(n2)CC(C)CC3=O)c(C)c1 (stereo not drawn) | inconclusive: 10 µM [inhibitor, partial curve, poor fit] |
| COc1ccccc1C(=O)COC(=O)C(NC(=O)Cc1ccccc1)C(C)C (stereo not drawn) | inconclusive: 28.2 µM [inhibitor, single point] |
| CC(C)c1cc(-c2cc(C(=O)NCc3ccccc3)on2)nc(NC2CCCC2)n1 | inactive |
| Cc1ccccc1-n1nc2c(c1NC(=O)c1ccc(S(=O)(=O)N(C)C)cc1)CSC2 | inactive |
| CCc1ccc(CN(C)C(=O)c2cc(COc3cncc(Cl)c3)on2)cc1 | inconclusive: 12.6 µM [inhibitor, partial curve, poor fit] |
| CCN(CC)CC(O)Cn1c(C)c(-c2ccccc2)c2cc([N+](=O)[O-])ccc21 (stereo not drawn) | active: 4.47 µM |
| COc1ccccc1CN1CCC(n2nccc2NC(=O)CCc2ccccc2)CC1 | inconclusive: 10 µM [inhibitor, single point] |
| O=C(Nc1cn(-c2ccccc2)nc1-c1cccs1)c1ccco1 | inconclusive: 12.6 µM [inhibitor, single point] |
| O=C(Cc1csc(-c2ccccc2)n1)NCc1ccc(F)cc1 | inconclusive: 11.2 µM [inhibitor, single point] |
| O=C(Nc1ccc(F)cc1)c1ccc(Br)c(S(=O)(=O)N2CCOCC2)c1 | inconclusive: 10 µM [inhibitor, partial curve, poor fit] |
| COc1ccc(CC(N)c2csc(NC(=O)c3cc(C(C)(C)C)oc3C)n2)cc1 (stereo not drawn) | inconclusive: 28.2 µM [inhibitor, single point] |
| CSc1cccc(NC(=O)CN(c2ccc(C)cc2C)S(C)(=O)=O)c1 | inconclusive: 12.6 µM [inhibitor, partial curve, poor fit] |
| CCOC1=C2CN(S(=O)(=O)c3ccc(C)cc3)C(c3ccc(C)cc3)CC2N(S(=O)(=O)c2ccc(C)cc2)C(c2ccccc2)C1 (stereo not drawn) | inactive |
| O=S(=O)(/C=C/c1ccccc1)NC1CCCCCC1 | inconclusive: 31.6 µM [inhibitor, single point] |
| COc1ccccc1OCCCn1c(C2CC(=O)N(c3ccccc3Cl)C2)nc2ccccc21 (stereo not drawn) | inconclusive: 11.2 µM [inhibitor, partial curve, poor fit] |
| COc1ccccc1CNC(=O)C(=O)Nc1ccc(C(=O)N2CCC(C)CC2)cc1 | inconclusive: 28.2 µM [inhibitor, single point] |
| COc1ccccc1C(=O)N1CCN(c2cccc(Cl)c2)CC1 | inconclusive: 1 µM [inhibitor, full curve, poor fit] |
| CCOC(=O)C1CCN(c2c(C(=O)c3ccccc3)cnc3ccc(CC)cc23)CC1 | inconclusive: 11.2 µM [inhibitor, partial curve, poor fit] |
| CC1(C)C2CCC1(C)C(OC(=O)CCn1ccnc1)C2 (stereo not drawn) | inconclusive: 11.2 µM [inhibitor, single point] |
| CSc1ncc(CN2CCC(C(=O)Nc3cccc(-c4cscn4)c3)CC2)cn1 | inconclusive: 10 µM [inhibitor, single point] |
| S=C(NCCCc1ccccc1)Nc1ccc(Br)cc1 | inconclusive: 10 µM [inhibitor, partial curve, poor fit] |

| Compound | Potency |
| --- | --- |
| Cn1cnc2cc(NCc3ccc(Cl)cc3)ccc21 | inactive |
| COc1ccc(Br)cc1CNC(=O)Nc1cccs1 | inconclusive: 14.1 µM [inhibitor, single point] |
| CCN(C)C1CN(Cc2cn(Cc3ccc(C(F)(F)F)cc3)nn2)S(=O)(=O)C1 (stereo not drawn) | inactive |
| Cc1nn(-c2ccc(N3CCCCC3)nn2)c(C)c1CCC(=O)Nc1ccc(F)cc1 | inconclusive: 28.2 µM [inhibitor, single point] |
| O=S(=O)(/C(=C/c1ccc(C(F)(F)F)cc1)c1nc2ccccc2[nH]1)c1ccccc1 | active: 1.78 µM |
| CCCCC(=O)N=c1sc2c(OC)ccc(OC)c2n1C | inconclusive: 0.501 µM [inhibitor, full curve, poor fit] |
| Fc1ccc(-n2cc(CNCCc3ccncc3)c(-c3ccccc3Cl)n2)cc1 | inconclusive: 28.2 µM [inhibitor, single point] |
| Cc1cccn2c(=O)c(/C=C(\C#N)C(=O)NC3CCS(=O)(=O)C3)c(N3CCC(C)CC3)nc12 (stereo not drawn) | inactive |
| CC(C)/C(=N/Nc1ccccc1[N+](=O)[O-])c1ccccc1 | inconclusive: 5.62 µM [inhibitor, full curve, poor fit] |
| CN(C)c1ccc(CNC(=O)CCCN2C(=O)CCn3nc(-c4cccn4C)cc32)cc1 | inactive |
| NC(=O)CC(NC(=O)c1ccc(Br)cc1)c1ccc(NCc2ccc(F)c(F)c2)c([N+](=O)[O-])c1 (stereo not drawn) | inconclusive: 10 µM [inhibitor, single point] |
| O=C1N(c2ccc(Cl)cc2)C(c2ccc(Cl)cc2)N2CCCN12 (stereo not drawn) | inconclusive: 11.2 µM [inhibitor, partial curve, poor fit] |
| COc1cc(OC)nc(Oc2ccccc2C(=O)Oc2ccc(F)cc2Cl)n1 | inconclusive: 15.8 µM [inhibitor, single point] |
| Cc1cc(C)cc(NC(=S)N2CCN(S(=O)(=O)c3ccccc3)CC2)c1 | inconclusive: 5.62 µM [inhibitor, partial curve, poor fit] |
| Cc1ccc(C)c(N2CCN(C(=O)CCCn3ncn4c(cc5occc54)c3=O)CC2)c1 | inconclusive: 22.4 µM [inhibitor, single point] and inconclusive: 10 µM [inhibitor, partial curve, poor fit] |
| COC(=O)c1ccc(N2CCN(S(=O)(=O)c3c(C)cc(C)cc3C)CC2)c([N+](=O)[O-])c1 | inconclusive: 8.91 µM [inhibitor, partial curve, poor fit] |
| O=C(Nc1ccccc1)c1nn(-c2ccccc2)c(=O)cc1C(F)(F)F | inactive |
| O=C(c1ccccc1)N(CCCl)C(=O)N(CCCl)C(=O)c1ccccc1 | inactive |
| COc1ccc(OC)c(NC(=O)c2cn3c4c(ccc(Cl)c4c2=O)OC(C)C3)c1 (stereo not drawn) | inactive |
| O=C(CCCc1ccccc1)Nc1cccc([N+](=O)[O-])c1 | inconclusive: 28.2 µM [inhibitor, single point] |
| CCOC(=O)C1CCN(c2nc(-c3ccc(Br)cc3)nc3ccccc23)CC1 | inconclusive: 28.2 µM [inhibitor, single point] |

| Compound | Potency |
| --- | --- |
| COc1ccc(S(=O)(=O)N(C(=O)c2ccncc2)c2ccc3oc4c(c3c2)CCCC4)cc1 | active: 10 µM |
| CC(C)CCN(CC(=O)NC1CCCC1)C(=O)C(=O)Nc1ccc2c(c1)OCCO2 | inconclusive: 12.6 µM [inhibitor, single point] |
| CCOc1ccc(CC2S/C(=N/c3ccccn3)NC2=O)cc1 (stereo not drawn) | inactive |
| O=C(N/N=C/c1ccccn1)c1ccccc1 | inactive |
| CCOc1cccc2sc(N(CCN(CC)CC)C(=O)c3ccc(S(=O)(=O)N4CCCC4)cc3)nc12 | inconclusive: 10 µM [inhibitor, single point] |
| O=C(Nc1cc(F)ccc1F)N1CCN(c2ccnc3cc(Cl)ccc23)CC1 | inactive |
| CCS(=O)(=O)c1nc2ccccc2n1Cc1ccccc1Cl | inconclusive: 10 µM [inhibitor, partial curve, poor fit] |
| Cc1ccccc1C(=O)N1CCN(c2ccc(NC(=O)c3ccc4c(c3)OCO4)cc2)CC1 | inconclusive: 0.316 µM [inhibitor, full curve, poor fit] |
| CCS(=O)(=O)N1CCc2cc(C(=O)Nc3ccc(C)c(Cl)c3)ccc21 | inconclusive: 7.94 µM [inhibitor, partial curve, poor fit] |
| Cc1ccc(OC(C)C(=O)Nc2ccccc2C(=O)NCc2cccnc2)cc1C (stereo not drawn) | inconclusive: 28.2 µM [inhibitor, single point] |
| Cc1ccc(NC(=S)NCc2ccccc2)cc1[N+](=O)[O-] | inconclusive: 22.4 µM [inhibitor, partial curve] |
| CC(C)N(C(=O)Cn1c(SCC(=O)Nc2nccs2)nc2ccccc21)C(C)C | inconclusive: 11.2 µM [inhibitor, partial curve, poor fit] |
| O=C(CCCN1C(=O)/C(=C/c2ccc(F)cc2)SC1=S)NCCCn1ccnc1 | inconclusive: 3.55 µM [inhibitor, full curve, poor fit] |
| Cc1cc2c(SCC(=O)NC3CCCC3)ncnc2s1 | inactive |
| C=CCNc1nc(-c2cc3ccccc3o2)cs1 | inconclusive: 28.2 µM [inhibitor, single point] |
| CC(=O)Nc1ccc(-c2ccnc3c2CC(C)(C(=O)NCc2ccc(F)c(F)c2)O3)cc1 (stereo not drawn) | inconclusive: 1.78 µM [inhibitor, partial curve, poor fit] |
| O=C(N/N=C/c1cc(Cl)ccc1O)c1ccccc1Br | inconclusive: 1.26 µM [inhibitor, partial curve, poor fit] |
| CCCCCn1c(NCc2ccccc2OC)nc2ccccc21 | inconclusive: 14.1 µM [inhibitor, single point] |
| CC[C@@H](C(=O)[C@@H](C)[C@@H](O)[C@H](C)CCc1ccc(C)c(O)c1C(=O)O)[C@H]1O[C@](CC)([C@H]2CC[C@](O)(CC)[C@H](C)O2)C[C@@H]1C | active: 10 µM |
| CC(C)CCn1c2ccccc2c2cc(CC(N)=O)ccc21 | inconclusive: 12.6 µM [inhibitor, single point] |
| CSc1ccccc1NC(=S)N/N=C/c1cccn1Cc1ccc(F)cc1 | inconclusive: 28.2 µM [inhibitor, single point] |
